Patent CN116615457A (ICONOSCO S A, dated 2023)
Numbering of substitutions follows the chain as printed.

Columns and labels:
[1] = target: T1, 重组食蟹猴IL-1RAP-ECD(S21-E359)-avi-his蛋白 (cynomolgus monkey, UniProt P59822 21-359 (rhesus entry), biotinylated in the Fab SPR assay); experiment: SPR; IgG1 LALA captured on anti-human IgG Fc chip, cynomolgus IL-1RAP-avi-his as analyte
T1 construct: also called 食蟹猴IL-1RAP-ECD-Avi-His; 重组食蟹猴IL-1RAP-avi-his蛋白
T1 sequence: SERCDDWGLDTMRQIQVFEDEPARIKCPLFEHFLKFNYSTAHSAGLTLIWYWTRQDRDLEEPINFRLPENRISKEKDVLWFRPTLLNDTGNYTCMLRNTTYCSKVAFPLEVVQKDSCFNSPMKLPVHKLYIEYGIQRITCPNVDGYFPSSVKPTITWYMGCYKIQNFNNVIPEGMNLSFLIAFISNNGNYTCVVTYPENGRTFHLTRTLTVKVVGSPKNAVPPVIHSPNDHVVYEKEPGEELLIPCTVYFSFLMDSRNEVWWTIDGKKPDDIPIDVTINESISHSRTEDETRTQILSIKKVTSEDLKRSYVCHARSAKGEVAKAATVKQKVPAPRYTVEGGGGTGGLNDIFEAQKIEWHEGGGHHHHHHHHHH

[2] = target: T2, 重组人IL-1RAP-ECD(S21-E359)-avi-his蛋白 (human, UniProt Q9NPH3 21-359, biotinylated in the BLI binning assay); experiment: SPR; IgG1 LALA captured on anti-human IgG Fc chip, human IL-1RAP-avi-his as analyte
T2 construct: also called 人IL-1RAP-ECD-Avi-His; 重组人IL-1RAP-avi-his蛋白
T2 sequence: T1 sequence with F183L, P273T, T326K

binding result [1]: binds
binding result [2]: binds
B1: 抗IL1-RAP-C8-RecC-ES-IgG1-LALA (antibody)
heavy: QVQLVQSGAEVKKPGSSVKVSCKASGSPAEPYAIQWVRQAPGQGLEWMGYIIPSLGGYDYAQKFQGRVTITADESTSTAYMELSSLRSEDTAVYYCARGQTLYESGRQFDIWGQGTLVTVSS[skipping human IgG1 constant region with changes]
light: EIVMTQSPATLSVSPGERATLSCRASQSVSSNLAWYQQKPGQAPRLLIYGASTRATGIPARFSGSGSGTEFTLTISSLQSEDFAVYYCQQYNNWPWTFGQGTKVEIKRTVAAPSVFIFPPSDEQLKSGTASVVCLLNNFYPREAKVQWKVDNALQSGNSQESVTEQDSKDSTYSLSSTLTLSKADYEKHKVYACEVTHQGLSSPVTKSFNRGEC
notes: D100/S100a (Kabat) of C8-RecC CDR-H3 replaced by ES
